Assay results: US10294218B2 (VIROSTATICS SRL, priority 2012, dated 2019)

System: Primary T cells
Assay: Cytotoxicity, percentage of viable cells by flow cytometry
Type: cell-based
Experimental: Primary T cells are cultured and treated with different concentrations of the test compound. Viability is analysed by measuring through flow cytometry based techniques the percentage of viable cells, compared to untreated control=100%). Toxic dose 50% (TD50) is calculated.
In Tables 2, 3 and 4, ND means Not Determined.

Row | SMILES | TD50 (Toxic dose 50%) [µM]
1 | CCOc1cc(F)ccc1-c1cc(Nc2ccc(OC)c(N)c2)ncn1 [Example 73, N^1-[6-(2-Ethoxy-4-fluoro-phenyl)-pyrimidin-4-yl]-4-methoxy-benzene-1,3-diamine] | 6
2 | COc1cc(F)c(Nc2cc(-c3cc(F)ccc3OC)ncn2)cc1C(N)=O [Example 144, 4-Fluoro-5-[6-(5-fluoro-2-methoxy-phenyl)-pyrimidin-4-ylamino]-2-methoxy-benzamide] | 12
3 | COc1ccc(Nc2cc(-c3ccccc3OC)ncn2)cc1NS(C)(=O)=O [Example 9, N-(2-Methoxy-5-(6-(2-methoxyphenyl)pyrimidin-4-ylamino)phenyl)methanesulfonamide] | >1.5
4 | CCOc1cc(F)ccc1-c1cc(Nc2cc(N)c(OC)c(F)c2)ncn1 [Example 89, N^1-[6-(2-Ethoxy-4-fluoro-phenyl)-pyrimidin-4-yl]-5-fluoro-4-methoxy-benzene-1,3-diamine] | >20
5 | COc1ccccc1-c1cc(Nc2ccc(Cl)c(Cn3cnc4ccccc43)c2)ncn1 [Example 16, N-(3-((1H-benzo[d]imidazol-1-yl)methyl)-4-chlorophenyl)-6-(2-methoxyphenyl)pyrimidin-4-amine] | 1.5
6 | CCOc1ccc(Nc2cc(-c3ccc(F)cc3OC)ncn2)cc1C(N)=O [Example 112, 2-Ethoxy-5-[6-(4-fluoro-2-methoxy-phenyl)-pyrimidin-4-ylamino]-benzamide] | 10
7 | COc1ccc(F)cc1-c1cc(Nc2cc(F)c(OC)c(C(N)=O)c2)ncn1 [Example 140, 3-Fluoro-5-[6-(5-fluoro-2-methoxy-phenyl)-pyrimidin-4-ylamino]-2-methoxy-benzamide] | >20
8 | COc1ccc(Nc2cc(-c3ccccc3OC)ncn2)cc1OC(=O)C(C)(C)C [Example 26, 2-methoxy-5-(6-(2-methoxyphenyl)pyrimidin-4-ylamino)phenyl pivalate] | 6
9 | CCOc1cc(F)ccc1-c1cc(Nc2cc(C(N)=O)c(OC)cc2F)ncn1 [Example 147, 5-[6-(2-Ethoxy-4-fluoro-phenyl)-pyrimidin-4-ylamino]-4-fluoro-2-methoxy-benzamide] | 15
10 | COc1ccc(Nc2cc(-c3ccccc3OC)ncn2)cc1CO [Example 24, (2-Methoxy-5-(6-(2-methoxyphenyl)pyrimidin-4-ylamino)phenyl)methanol] | >0.5
11 | COc1ccc(Nc2cc(-c3ccccc3OC)ncn2)cc1C=O [Example 29, 2-Methoxy-5-(6-(2-methoxyphenyl)pyrimidin-4-ylamino)benzaldehyde] | >0.5
12 | COc1ccc(Nc2cc(-c3ccc(F)cc3OC)ncn2)cc1N [Example 64] | 5
13 | COc1ccccc1-c1cc(Nc2ccc(N3CCN(C)CC3)c(S(N)(=O)=O)c2)ncn1 [Example 38, 5-(6-(2-Methoxyphenyl)pyrimidin-4-ylamino)-2-(4-methylpiperazin-1-yl)benzenesulfonamide] | <1.5
14 | COc1ccccc1-c1cc(Nc2ccc(C(N)=O)c(Cl)c2)ncn1 [Example 132, 2-Chloro-4-[6-(2-methoxy-phenyl)-pyrimidin-4-ylamino]-benzamide] | >10
15 | COc1ccc(Nc2cc(-c3ccccc3OC)ncn2)cc1F [Example 22, N-(3-Fluoro-4-methoxyphenyl)-6-(2-methoxyphenyl)pyrimidin-4-amine] | >0.5
16 | COc1ccc(Nc2cc(-c3ccccc3OCc3ccccc3)ncn2)cc1N [Example 71, N^1-[6-(2-Benzyloxy-phenyl)-pyrimidin-4-yl]-4-methoxy-benzene-1,3-diamine] | >10
17 | COc1cc(F)c(Nc2cc(-c3ccccc3OC)ncn2)cc1N [Example 92, 4-Fluoro-6-methoxy-N^3-[6-(2-methoxy-phenyl)-pyrimidin-4-yl]-benzene-1,3-diamine] | >20
18 | CCOc1ccccc1-c1cc(Nc2cc(F)c(OC)c(C(N)=O)c2)ncn1 [Example 141, 5-[6-(2-Ethoxy-phenyl)-pyrimidin-4-ylamino]-3-fluoro-2-methoxy-benzamide] | >20
19 | COc1ccccc1-c1cc(Nc2ccc(O)c([N+](=O)[O-])c2)ncn1 [Example 12, 4-(6-(2-methoxyphenyl)pyrimidin-4-ylamino)-2-nitrophenol] | >1.5
20 | COc1ccccc1-c1cc(Nc2ccc(F)c(Cn3cnc4ccccc43)c2)ncn1 [Example 40, N-(3-((1H-Benzo[d]imidazol-1-yl)methyl)-4-fluorophenyl)-6-(2-methoxyphenyl)pyrimidin-4-amine] | 0.4
21 | COc1ccccc1-c1cc(Nc2cc(N)c(OC)c(F)c2)ncn1 [Example 88, 5-Fluoro-4-methoxy-N^1-[6-(2-methoxy-phenyl)-pyrimidin-4-yl]-benzene-1,3-diamine] | >20

Row | SMILES | TD50 (Toxic dose 50%) [µM]
22 | COc1cc(F)ccc1-c1cc(Nc2cc(F)c(OC)c(C(N)=O)c2)ncn1 [Example 138, 3-Fluoro-5-[6-(4-fluoro-2-methoxy-phenyl)-pyrimidin-4-ylamino]-2-methoxy-benzamide] | >20
23 | CCOc1cc(F)ccc1-c1cc(Nc2cc(F)c(OC)c(C(N)=O)c2)ncn1 [Example 139, 5-[6-(2-Ethoxy-4-fluoro-phenyl)-pyrimidin-4-ylamino]-3-fluoro-2-methoxy-benzamide] | >20
24 | COc1ccc(Nc2cc(-c3ccc(F)cc3OC)ncn2)cc1O [Example 123, 5-[6-(4-Fluoro-2-methoxy-phenyl)-pyrimidin-4-ylamino]-2-methoxy-phenol] | 7
25 | COc1ccccc1-c1cc(Nc2ccc(N3CCOCC3)c(CO)c2)ncn1 [Example 19, (5-(6-(2-Methoxyphenyl)pyrimidin-4-ylamino)-2-morpholinophenyl)methanol] | >0.5
26 | COc1ccc(Nc2cc(-c3ccc(F)cc3OC)ncn2)cc1C(N)=O [Example 128, 5-[6-(4-Fluoro-2-methoxy-phenyl)-pyrimidin-4-ylamino]-2-methoxy-benzamide] | 5
27 | COC(=O)c1cc(Nc2cc(-c3ccccc3OC)ncn2)ccc1OC [Example 30, Methyl 2-methoxy-5-(6-(2-methoxyphenyl)pyrimidin-4-ylamino)benzoate] | >0.5
28 | COc1ccccc1-c1cc(Nc2ccc(N(C)C)c(Cn3cnc4ccccc43)c2)ncn1 [Example 42, 2-((1H-Benzo[d]imidazol-1-yl)methyl)-N4-(6-(2-methoxyphenyl)pyrimidin-4-yl)-N1,N1-dimethylbenzene-1,4-diamine] | 4
29 | COc1ccc(Nc2cc(-c3cc(F)ccc3OC)ncn2)cc1N [Example 75, N^1-[6-(5-Fluoro-2-methoxy-phenyl)-pyrimidin-4-yl]-4-methoxy-benzene-1,3-diamine] | 10
30 | COc1cccc(-c2cc(Nc3ccc(OC)c(N)c3)ncn2)c1 [Example 68, 4-Methoxy-N^1-[6-(3-methoxy-phenyl)-pyrimidin-4-yl]-benzene-1,3-diamine] | >10
31 | CCOc1ccc(F)cc1-c1cc(Nc2ccc(OC)c(C(N)=O)c2)ncn1 [Example 131, 5-[6-(2-Ethoxy-5-fluoro-phenyl)-pyrimidin-4-ylamino]-2-methoxy-benzamide] | 2
32 | CCOc1ccc(Nc2cc(-c3ccccc3OC)ncn2)cc1N [Example 101, 4-Ethoxy-N^1-[6-(2-methoxy-phenyl)-pyrimidin-4-yl]-benzene-1,3-diamine] | 12
33 | COc1cc(Nc2cc(-c3ccccc3OC)ncn2)ccc1N [Example 59, 2-Methoxy-N^4-[6-(2-methoxy-phenyl)-pyrimidin-4-yl]-benzene-1,4-diamine] | >2
34 | COc1ccc(Nc2cc(-c3cc(F)c(F)cc3OC)ncn2)cc1N [Example 83, N^1-[6-(4,5-Difluoro-2-methoxy-phenyl)-pyrimidin-4-yl]-4-methoxy-benzene-1,3-diamine] | 12
35 | CCOC(=O)c1cc(Nc2cc(-c3ccccc3OC)ncn2)ccc1Cl [Example 14, Ethyl 2-chloro-5-(6-(2-methoxyphenyl)pyrimidin-4-ylamino)benzoate] | >0.5
36 | COc1ccc(Nc2cc(-c3ccccc3OC)ncn2)cc1C(N)=O [Example 45, 2-methoxy-5-(6-(2-methoxyphenyl)pyrimidin-4-ylamino)benzamide] | 15
37 | CCOc1ccc(F)cc1-c1cc(Nc2cc(C(N)=O)c(OC)cc2F)ncn1 [Example 148, 5-[6-(2-Ethoxy-5-fluoro-phenyl)-pyrimidin-4-ylamino]-4-fluoro-2-methoxy-benzamide] | 1
38 | COc1ccc(Nc2cc(-c3ccccc3OC)ncn2)cc1O [Example 32, 2-Methoxy-5-(6-(2-methoxyphenyl)pyrimidin-4-ylamino)phenol] | 20
39 | COc1ccc(Nc2cc(-c3ccccc3OC)ncn2)cc1CN(C)C [Example 35, N-(3-((Dimethylamino)methyl)-4-methoxyphenyl)-6-(2-methoxyphenyl)pyrimidin-4-amine] | 3
40 | COc1ccc(Nc2cc(-c3ccccc3OC)ncn2)cc1Cn1cnc2ccccc21 [Example 31, N-(3-((1H-Benzo[d]imidazol-1-yl)methyl)-4-methoxyphenyl)-6-(2-methoxyphenyl)pyrimidin-4-amine] | 1.8
41 | COc1ccc(Nc2cc(-c3ccccc3OC)ncn2)cc1C(=O)NCc1ccncc1 [Example 28, 2-Methoxy-5-(6-(2-methoxyphenyl)pyrimidin-4-ylamino)-N-(pyridin-4-ylmethyl)benzamide] | >0.5
42 | CCOc1ccc(Nc2cc(-c3ccccc3OC)ncn2)cc1Cn1cnc2ccccc21 [Example 39, N-(3-((1H-Benzo[d]imidazol-1-yl)methyl)-4-ethoxyphenyl)-6-(2-methoxyphenyl)pyrimidin-4-amine] | 0.6
